# Some of the results follow.
# System: PfSIP2 AP2 domain 1 (GST-tagged)
# Test: gcPBM binding intensity (ln(normalized median fluorescence intensity)); higher = stronger DNA binding
# How it was run: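 GST-fused DNA-binding domains of P. falciparum, expressed in E. coli, were applied at about 25 μg on average for 1 h to an Agilent 4 × 180k array of primer-extended double-stranded 36-bp intergenic genomic probes and negative controls. Binding intensity is the highest Masliner-normalised natural-log median intensity across replicate spots of either probe orientation, measured with Alexa488 anti-GST antibody and a 488 nm scan.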
row,Sequence,gcPBM binding intensity (ln)
1,TTGGTCTTTTAAAAAAGTACAAAAAAAAAAAAAAAA [XGTACX_site1665],7.55
2,GATAAATTAAGACACACACACATATATTTATTTATA [CACACA_site7789],7.12
3,AAAAAAGAACGCATAGTGCATATCTAAAAGATTTTT,8.32
4,TAGTATTAGATATATACACACATATATACCTATAGA [CACACA_site7083],6.82
5,ATTTTTTTTTTTATAGTGGATCCACATTTGCCATTT [CACACA_negctrl_site1106],6.95
6,TTACGATCATCAATATGTACATATATATATATATAT [XGTACX_site4301],9.37
7,TATAAAAAAATATTATAATATATATATATATATATA [XGTACX_negctrl_site41],8.86
8,AATATTTATATTTACACACACATAATACATCTATGT [CACACA_site4187],7.06
9,TTTATAAAAATGAACACACACATATAAATATAAATA [CACACA_site7607],7.03
10,TTTTAAATATGAACATGTACATGTAAATTTACATGT [XGTACX_site4573],7.05
11,AATAATATATTTAGGGGTACATAATAATATATTTTA [XGTACX_site8366],7.02
12,AAAAATAGAATAAATACACACCCGTGTAACGGATTT [CACACA_site3372],6.46
13,TTTTAATTTATTAATTGTACATGTATTTTAAGATTA [XGTACX_site8417],6.82
14,TTATTATTAAAAAAAAGTACAGAATTGAATAATACA [XGTACX_site651],7.46
15,TAAACATTTGGCTGATGTACTTGCTACCTTAAATCA [XGTACX_site5514],6.63
16,ATTTTTGTGTATTAATGTACTTTATGCATATTTGAC [XGTACX_site3353],7.52
17,TATTTTTATAAGTAAAAGGAGCACAGTTAAAGGATC [XGTACX_negctrl_site362],8
18,CATTTAACATAAATTAAACACACAATATAATACATT [CACACA_site8333],7
19,AAAGATAAAATATTATGTACATATATATATATATAT [XGTACX_site5079],9.34

row,Sequence,gcPBM binding intensity (ln)
1,TGTATAAAAGTTTATACACACATTTGATATATTTCA [CACACA_site6606],6.93
2,TTTTTTTGTTGTTGTTGTACGATATTTTCCTTATCA [XGTACX_site2375],7
3,TATAAAAAAAACAAAAAAAAAAAAAAACAAAAAAAA [TGCATGCA_negctrl_site514],6.81
4,GGGAATATAAGTACACGATAATATGTGATAAGGTCT [CACACA_negctrl_site1502],7.17
5,TTTTATTTTTATTATACACACGCTTAATAAATGCAT [CACACA_site1751],6.89
6,GGGGGGATGAGATATTGTACTTTTTAGGAAAGTGTA [XGTACX_site2835],9.19
7,ATTAAATACATTAACACACACACAAATATATACATA [CACACA_site2881],7.09
8,AATAATAATACTAATCGTACGCATATTTTTCAAACC [XGTACX_site8055],7.08
9,CATGTTCATCAGAACGCACACATAATGGTTTACTTA [CACACA_site898],6.91
10,AAGAAAAAAAAAATTACACACTGCGCACATACACAA [CACACA_site6721],7.6
11,AGTAACTAATTAAATGCATGTCGATATATATTATAT [TGCATGCA_site1038],7.17
12,GTGTATATGTATATATGTACATAAATTTTTTTTTTT [XGTACX_site7083],7.02
13,GATACACCAAATAACTGTACGCACGTGTAATATTAA [XGTACX_site3441],7.38
14,ACTTATATAAAACATTAACACACAAAGAAAAAAAAT [CACACA_site8529],7.17
15,TATATATATATATATACACACATATATACCTATATA [CACACA_site6085],9.25
16,AAAAAAAAGTTAAGCACACACATGAATAAATAATAC [CACACA_site840],7.33
17,CCTAGAAAAGTATATACACACGCGCAAAATAAAATT [CACACA_site1413],7.09
18,TGAAAAAAAAAATACACACACGAGTTGTTATACATA [CACACA_site7486],6.66
19,ATTAAAAAAATTGGCACACATAAAAATATATAAAAA [CACACA_site2748],7.01

row,Sequence,gcPBM binding intensity (ln)
1,GTTTTTAATGTTTTGACATGCAATATTAAAAATAAT [TGCATGCA_site174],7.03
2,AACAGATATGAATAGAAAAAAAAAAATGGCCCATAT [TGCATGCA_negctrl_site443],6.69
3,TATAATGATAATAATAGTACACATTAGAACGGGAGG [XGTACX_site2563],7.35
4,TATAATAATAAAAACACACACGTTGATTGTATTAGC [CACACA_site5336],6.76
5,CCTATTATTTCTAAAACACACAAAAATATAAAAGAA [CACACA_site2708],7.39
6,ATAATATTATTTAAAAGTACTAACAAAAGAATATTA [XGTACX_site4989],7.02
7,TCTTTTTTTTATTATATCATTGAAATGTTAAAACGA [XGTACX_negctrl_site473],6.91
8,ATTAAAAAAAATATATATGTATAAAACAAGCAAAAT [XGTACX_negctrl_site474],7.31
9,TACACAAACAAACACACACACACACCCCCACAAAAA [CACACA_site2428],7.99
10,GACCACTTTAGGATTTGTACACATATTATATATGCA [XGTACX_site6579],7.23
11,TAGCCATTTTTATATTGTACTTATATAATCACATTT [XGTACX_site4407],7.29
12,ATAAAAAAAAATAACACACAGACATAAGAATAAATA [CACACA_site4162],6.91
13,ATATAAGAAAAGCACACACACACAAAAAAAAAAAAA [CACACA_site2827],7.01
14,AAAAAAATTAAAAATTAAAATTAAAAATAATATATA [GTGCAC_negctrl_site466],6.56
15,AATGTATAAATCCATACACACATAAATTTTAATAAT [CACACA_site2363],6.76
16,TAATTTCTTTAGGGGGTGCTTTTATAGTTTTTATTA,9.53
17,TTTATATTTATGATGGGTACACAAAATTTTACCCAT [XGTACX_site1504],6.96
18,CTGTCTGCAGATATGGTGCATTTGTAAGATCTTACA [GTGCAC_site9870],10.4
